Our source for the self-cleavage values is the RNAGym collection of RNA variant scans (doi:10.7554/elife.90254).

B1: LINE1-mini (parent)
chain: GGCAGAGCUCAACACAGCGUGGCAAAGUGGCUGUGGCUAGACUGCC

The source gives no read counts; variants with many changes may rest on few reads.

Variants of B1 are the subject of this data set. The data set is described as follows: self-cleavage, relative activity (ratio to wild type); higher = more cleavage; in vitro, sequencing; the parent is a self-cleaving ribozyme.
For the variant G5A A24G G33U, the self-cleavage is 0.07.
For the variant G5A G27U C42G, the self-cleavage is 0.04.
For G5A C13U G36C U38A, the self-cleavage stood at 0.06.
With G5A A11G C31U, the self-cleavage worked out at 0.02.
On to G5A C18U A41G, for which the self-cleavage worked out at 0.04.
A4U U9C C13U G21C: the self-cleavage came to 0.08.
As to G5A C13G U43A, the self-cleavage stood at 0.04.
For G5C A11U C15G, the self-cleavage amounted to 0.02.
As for G5A C10A C15U C18A G29C G40C, the self-cleavage is 0.06.
For the variant G5C A26G C31A, the self-cleavage was 0.07.
Take G5A U32G G33U: the self-cleavage was 0.02.
In the case of A4U U9A C37U it was 0.11; in that of A4U G5U U9C U34C, 0.05; in that of G5A G21C G30U C37G, 0.05.
As to G5A C15U G27A G33A, the self-cleavage is 0.03.
For the variant G5A G7C C18U G33C, the self-cleavage stood at 0.06.
Regarding G5A C13G A14G C15G, the self-cleavage was found to be 0.05.
On to G5C A11U C45U, for which the self-cleavage worked out at 0.02.
With G5A U38A C45A, the self-cleavage is 0.03.
Regarding G5A A25C G35U, the self-cleavage came out at 0.16.
With G5A C15A A24U, the self-cleavage amounted to 0.05.
In the case of A4U G30U G35A C45U it was 0.03; in that of A4U G17A A24G C31A U32A, 0.03.
In the case of A4U G21C A26C G33C U38A, the self-cleavage was found to be 0.03.
In the case of G5A A12C G17U A25U G35U, the self-cleavage stood at 0.01.
Regarding A4U C18G G30C U43C G44U, the self-cleavage was found to be 0.06.
Turning to A4U G17C C23A, the self-cleavage amounted to 0.15.
For the variant A4U G7U C10G, the self-cleavage is 0.04.
Turning to A4U G7C G22C G40A, the self-cleavage was 0.03.
For A4U G5U C10A A14G A24U the value was 0.05; for A4U G7U C15A A25G G36A, 0.08.
Consider G5A G30U U32G G36C U38A A41U, for which the self-cleavage was 0.02.
For A4U G35A G44A the value was 0.07.
For the variant A4U G7C G22A, the self-cleavage came to 0.
In the case of A4U G29U U38G, the self-cleavage was 0.04.
Take G5A U9C C31A: the self-cleavage was found to be 0.02.
For A4U U28G G35A, the self-cleavage came out at 0.05.
For G5A A11U U20A U32G U38G, the self-cleavage was 0.01.
For the variant G5A C8A C15A C31G C46G, the self-cleavage is 0.45.
Turning to G5A G27C G40U, the self-cleavage came out at 0.06.
In the case of A4U G21U C37U it was 0; in that of G5A C15G C18A G36U, 0.02.
In the case of G5A G7U C37A, the self-cleavage worked out at 0.31.
For the variant G5A A12C G22A G33U, the self-cleavage came out at 0.02.
Take G5A A11C C15G U20A U32C: the self-cleavage is 0.01.
Take A4U U9G U20C G29C: the self-cleavage was 0.03.
On to G5A C10U G29C, for which the self-cleavage came to 0.06.
Turning to G5C A14U G35U, the self-cleavage came to 0.02.
In the case of A4U G5A U32G C37U U38C, the self-cleavage came out at 0.05.
A4U G5U A41U C45A: the self-cleavage worked out at 0.47.
For A4U G7A C46U the value was 0.08; for G5A C10A C15A A25G G27C C42A C46U, 0.05.
With G5A C10G G29C, the self-cleavage is 0.04.
In the case of G5A C15G C37U, the self-cleavage is 0.09.
With A4U G22C C46A, the self-cleavage was determined as 0.07.
In the case of G5C A24U G35A C37A it was 0.09.
For the variant G5A G40U U43A, the self-cleavage amounted to 0.07.
For G5A C18A C23U the value was 0.1; for A4U G33U G40U, 0.13.
In the case of G5A C8G G19C G22C G35U U38G it was 0.02.
For G5A G19A C23A G29C the value was 0.04; for G5A C8A C10A G30C G33U, 0.05; for G5A C10A G22A G33C C46A, 0.04.
With G5A A24C G30C, the self-cleavage turned out to be 0.05.
Consider G5A A11C U28A G30A C31A U34C C45U, for which the self-cleavage was 0.01.
G5A G19A U28G A39U G44A: the self-cleavage was found to be 0.05.
Regarding G5C A14U A41C, the self-cleavage was determined as 0.04.
On to G5A A25G G36U C37G, for which the self-cleavage worked out at 0.01.
Turning to G5A G7U C10G C18U A41C, the self-cleavage was determined as 0.01.
As to G5A U20G G33C, the self-cleavage was 0.04.
In the case of G5A C13G G30A C46G it was 0.05; in that of A4U U9A A11U C18G G40U C45A, 0.01.
Consider A4U G22A A26U C42G C45A, for which the self-cleavage was 0.01.
For G5A G17U A25G G27C U32G G40C the value was 0.04; for G5A A6U A16U U34A G35A A39U C46U, 0.23.
Turning to G5A A24U G29U, the self-cleavage came to 0.13.
In the case of G5C A6U A16C U20G G35C G44C it was 0.02; in that of G5A G7C U38A, 0.05; in that of G5C A6G A26G U38A, 0.14.
For the variant G5A C13A G29C, the self-cleavage amounted to 0.03.
Consider G5A C31A C42A, for which the self-cleavage turned out to be 0.05.
For the variant G5C A14G G19A U32G C37A, the self-cleavage turned out to be 0.04.
Consider G5A U9G G22A, for which the self-cleavage was 0.01.
Consider G5A A24U G35A, for which the self-cleavage turned out to be 0.03.
Turning to G5C A12U C23G A25U C42G, the self-cleavage is 0.11.
As to G5A A6U G29C U34A, the self-cleavage is 0.03.
Turning to G5A C18A G35U, the self-cleavage is 0.1.
In the case of A4U G5U G21U it was 0.1; in that of A4U G29A U38C, 0.16; in that of A4U G5C U28G, 0.31.
As to G5A U9A A14G C15G A25C U38A A39C, the self-cleavage was 0.07.
As to G5A C13U U20A G33C, the self-cleavage came out at 0.04.
In the case of G5A C8G A26C G30U U34G it was 0.07.
In the case of A4U G5U G40A, the self-cleavage was 0.15.
In the case of G5A G35C A39U it was 0.12.
Regarding A4U C18U U20C G35U C42A, the self-cleavage came out at 0.05.
On to G5A A16C C37A U43C, for which the self-cleavage came out at 0.02.
For the variant G5A C15G C18A C37A U43A, the self-cleavage stood at 0.01.
Turning to A4U G5C A6C G35A, the self-cleavage amounted to 0.04.
For the variant G5A U28G C42U, the self-cleavage is 0.89.
On to G5A G17U A25C, for which the self-cleavage worked out at 0.08.
On to G5A A11C A25U G44C, for which the self-cleavage is 0.03.
Consider G5A G27A G30U, for which the self-cleavage was 0.57.
On to G5A A25C G36A G40C, for which the self-cleavage worked out at 0.08.
For the variant G5A C8U C10A, the self-cleavage amounted to 0.01.
For A4U C18U A41C C42U the value was 0.06; for G5C A6G A26G U43A G44C, 0.01.
Regarding G5A C23A U28C U38A, the self-cleavage stood at 0.01.
G5A G19A U38G A39C: the self-cleavage amounted to 0.
On to G5A C10U U28A C46U, for which the self-cleavage is 0.06.
In the case of G5A U9C A16U G29U C31A G36C G44U, the self-cleavage is 0.1.
For the variant G5A C31G G36C, the self-cleavage is 0.04.
In the case of G5A C8U U9A G17C G19A G27U G30C U43A G44U it was 0.18.
For G5A G27U G29C G35U C45U, the self-cleavage was determined as 0.41.
As to G5C A6U G30C C42U C46A, the self-cleavage was determined as 0.02.
Consider G5A A12C G21C, for which the self-cleavage is 0.07.
For the variant G5A C8A G40U, the self-cleavage was found to be 2.94.
As for G5A C37A C45A, the self-cleavage stood at 0.19.
In the case of G5C A14C U28G G30C A39C, the self-cleavage was found to be 0.01.
In the case of A4U G27C G29U G36U it was 0.09; in that of G5A A11C G19A G22U, 0.03.
A4U G35C A39C C42U: the self-cleavage is 0.14.
As for A4U G30A A39C, the self-cleavage came to 0.12.
As to G5C A14C C46G, the self-cleavage was 0.02.
For the variant A4U G17A U32A G33C G35A, the self-cleavage was found to be 0.04.
On to G5A G19U G21A U28G C45A, for which the self-cleavage is 0.02.
Turning to A4U G5C G7A, the self-cleavage came to 0.2.
On to G5A G7A U9C C15A G21U U32A, for which the self-cleavage is 0.02.
A4U G7U G30U U38A: the self-cleavage is 0.39.
Consider G5A G7A C18A G27A, for which the self-cleavage stood at 0.36.
With G5A A25G A39G A41C U43C, the self-cleavage is 0.04.
As for A4U G21U C23G, the self-cleavage came out at 0.28.
With G5A A11C G27U G40A G44A C46A, the self-cleavage stood at 0.01.
On to G5A G27U A39C, for which the self-cleavage is 0.03.
For A4U U34A C42A the value was 0.05.
On to A4U G5U C10G G29U A39U G40C C42G, for which the self-cleavage worked out at 0.02.
Regarding G5C A12C C18G U28G, the self-cleavage worked out at 0.
For A4U G19U G35A U38C the value was 0.01; for G5A C18A G19A U20A U28C G30U, 0.1; for G5A G27U G44U, 0.04.
With A4U G22U C23A A24C G30C, the self-cleavage turned out to be 0.41.
As to G5A C8A C10G G27C, the self-cleavage is 0.02.
Regarding A4U C18A C46G, the self-cleavage is 0.16.
Regarding G5A C8U U9A, the self-cleavage stood at 0.38.
On to G5A A11U C23U A25C A26C U28G C42G, for which the self-cleavage came out at 0.
G5A G7A G17U: the self-cleavage amounted to 0.3.
G5A C15U G44U: the self-cleavage is 0.13.
As for A4U G27C G30C C37G, the self-cleavage was 0.08.
Take A4U U9G U38G U43C C46U: the self-cleavage worked out at 0.18.
In the case of G5C A16U C18A, the self-cleavage was 0.04.
Consider G5A A11C A24U C45G, for which the self-cleavage came to 0.02.
With G5A C8U G17U C18A U20C A26C U38C G44A C46A, the self-cleavage was 0.14.
In the case of G5A A6C C13U, the self-cleavage came out at 0.03.
For G5C A6C A11C G19A G29C C42U, the self-cleavage is 0.03.
G5A C10A A11G G21U C42U: the self-cleavage amounted to 0.02.
As to A4U G19A C23A C31A, the self-cleavage came out at 0.06.
In the case of G5A C15A C46A, the self-cleavage worked out at 0.
With G5A C18A G19C G30A, the self-cleavage amounted to 0.23.
As to A4U G22A U43A, the self-cleavage is 0.47.
Consider A4U U9A U20G G27U G30C C46A, for which the self-cleavage turned out to be 0.35.
For the variant G5C A11C G30A C46G, the self-cleavage was found to be 0.04.
For G5C A16C G30A the value was 0.05; for G5A C15U G17A G29C, 0.04; for G5A A6C U20C U43G, 0.
On to A4U G19U U20G C23A G33U, for which the self-cleavage worked out at 0.01.
Consider G5A A11U G27A G40A, for which the self-cleavage was found to be 0.02.
With G5A C8A G17C U20C G27A, the self-cleavage worked out at 0.34.
